# Screen size: about 39,000 compounds; about 220 (0.56%) showed activity. This is one part of the list.
# System: Escherichia coli K-12 BW25113
# Assay: relative growth (OD600 normalised to plate interquartile mean) (fraction); higher = less growth inhibition, active = 0.2 or less
# Settings: 50 µM; LB; incubation time: overnight (16-24 h)
# 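Also: static incubation at 37 °C against the wild-type strain, values averaged over two biological replicates.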
row,Compound,relative growth
1,COc1ccc(S(=O)(=O)Nc2ccc3c(c2)C(=O)N([C@H](C)CO)C[C@H](C)[C@H](CN(C)S(C)(=O)=O)OCCCC[C@@H](C)O3)cc1,inactive: 0.993
2,c1cnc2nccn2c1,inactive: 0.985
3,COc1ccc(CN(C)C[C@H]2Oc3c(NS(C)(=O)=O)cccc3C(=O)N([C@@H](C)CO)C[C@H]2C)cc1,inactive: 1.01
4,O=C(C[C@H]1C[C@@H]2c3cc(NC(=O)Nc4ccc(C(F)(F)F)cc4)ccc3O[C@@H]2[C@@H](CO)O1)NC1CCCCC1,inactive: 1
5,C[C@H](O)C#Cc1cnc2c(c1)C(=O)N([C@H](C)CO)C[C@@H](C)[C@@H](CN(C)Cc1cncnc1)O2,inactive: 1.01
6,C[C@H](CO)N1C[C@H](C)[C@H](CN(C)CC2CC2)Oc2ccc(NS(=O)(=O)c3ccc(F)cc3)cc2CC1=O,inactive: 0.995
7,C[C@@H]1CCCCO[C@@H](CN(C)C(=O)c2ccncc2)[C@H](C)CN([C@H](C)CO)C(=O)c2cc(NS(=O)(=O)c3ccc(Cl)cc3)ccc2O1,inactive: 0.976
8,CCCN(C)C[C@H]1OCCCC[C@@H](C)Oc2ccc(NC(=O)CCC(F)(F)F)cc2C(=O)N([C@H](C)CO)C[C@H]1C,inactive: 0.999
9,C[C@@H]1CN([C@H](C)CO)C(=O)Cc2cc(NC(=O)Nc3ccc(F)cc3)ccc2O[C@H]1CN(C)Cc1ccc(C(F)(F)F)cc1,inactive: 0.957
10,C[C@@H]1CN([C@H](C)CO)C(=O)CCCn2nncc2CO[C@@H]1CN(C)C(=O)Nc1ccc2c(c1)OCO2,inactive: 0.989
11,COc1ccccc1CN(C)C[C@@H]1OCc2ccccc2-c2c(n(C)c3ccccc23)C(=O)N([C@H](C)CO)C[C@@H]1C,inactive: 0.971
12,COCC#Cc1ccc2c(c1)O[C@@H](CN(C)S(=O)(=O)c1cccc(F)c1)[C@@H](C)CN([C@H](C)CO)S2(=O)=O,inactive: 1
13,Cc1noc(C)c1NC(=O)Nc1ccc2c(c1)CC(=O)N([C@H](C)CO)C[C@H](C)[C@@H](CN(C)CC1CC1)O2,inactive: 1.02
14,Cc1ccc(S(=O)(=O)Nc2ccc3c(c2)C(=O)N([C@H](C)CO)C[C@H](C)[C@H](CN(C)C(=O)C2CCCCC2)OCCCC[C@H](C)O3)cc1,inactive: 0.987
15,COc1ccc(S(=O)(=O)N(C)C[C@@H]2Oc3ccc(NC(=O)NC(C)C)cc3C(=O)N([C@@H](C)CO)C[C@H]2C)cc1,inactive: 0.986
16,C[C@H]1CN([C@@H](C)CO)C(=O)Cc2cc(NC(=O)C3CCCCC3)ccc2O[C@@H]1CN(C)Cc1ccc(-c2ccccc2)cc1,inactive: 1.02

# Source: the supplement of paper PMC9446081
